This note sets out measurements from paper PMC9911399, “Two distinct binding modes provide the RNA-binding protein RbFox with extraordinary sequence specificity”.

The labels stand for the following.
B1: UGACCUU (DNA:RNA)
RNA: GGGAGACCGGAAUUCAGAUUGUCCUGACCUUUUAAAUCCCGUCGUAGCCACCA
DNA 1: CAATCTGAATTCCGGTCTCCC
DNA 2: TGGTGGCTACGACGGGATT
B2: CUCUAUA (DNA:RNA)
RNA: B1 RNA with U25C, G26U, A27C, C28U, C29A, U31A
DNA 1: CAATCTGAATTCCGGTCTCCC
DNA 2: TGGTGGCTACGACGGGATT
B3: UAGUGUA (DNA:RNA)
RNA: B1 RNA with G26A, A27G, C28U, C29G, U31A
DNA 1: CAATCTGAATTCCGGTCTCCC
DNA 2: TGGTGGCTACGACGGGATT
B4: AGACCCC (DNA:RNA)
RNA: B1 RNA with U25A, U30C, U31C
DNA 1: CAATCTGAATTCCGGTCTCCC
DNA 2: TGGTGGCTACGACGGGATT
B5: GUUAAAC (DNA:RNA)
RNA: GGGAGACCGGAAUUCAGAUUGUCCGUUAAACUUAAAUCCCGUCGUAGCCACCA
DNA 1: CAATCTGAATTCCGGTCTCCC
DNA 2: TGGTGGCTACGACGGGATT
B6: CUUUGCA (DNA:RNA)
RNA: B5 RNA with G25C, A28U, A29G, A30C, C31A
DNA 1: CAATCTGAATTCCGGTCTCCC
DNA 2: TGGTGGCTACGACGGGATT
B7: UGCGCUC (DNA:RNA)
RNA: B1 RNA with A27C, C28G, U31C
DNA 1: CAATCTGAATTCCGGTCTCCC
DNA 2: TGGTGGCTACGACGGGATT
B8: AUGCGAG (DNA:RNA)
RNA: B5 RNA with G25A, U27G, A28C, A29G, C31G
DNA 1: CAATCTGAATTCCGGTCTCCC
DNA 2: TGGTGGCTACGACGGGATT
B9: AAGGGAG (DNA:RNA)
RNA: B5 RNA with G25A, U26A, U27G, A28G, A29G, C31G
DNA 1: CAATCTGAATTCCGGTCTCCC
DNA 2: TGGTGGCTACGACGGGATT
B10: UGGAGGA (DNA:RNA)
RNA: B1 RNA with A27G, C28A, C29G, U30G, U31A
DNA 1: CAATCTGAATTCCGGTCTCCC
DNA 2: TGGTGGCTACGACGGGATT
B11: AACACAC (DNA:RNA)
RNA: B5 RNA with G25A, U26A, U27C, A29C
DNA 1: CAATCTGAATTCCGGTCTCCC
DNA 2: TGGTGGCTACGACGGGATT
B12: CGCGCCG (DNA:RNA)
RNA: B1 RNA with U25C, A27C, C28G, U30C, U31G
DNA 1: CAATCTGAATTCCGGTCTCCC
DNA 2: TGGTGGCTACGACGGGATT
B13: CGAUGGG (DNA:RNA)
RNA: B1 RNA with U25C, C28U, C29G, U30G, U31G
DNA 1: CAATCTGAATTCCGGTCTCCC
DNA 2: TGGTGGCTACGACGGGATT
B14: AGCUACU (DNA:RNA)
RNA: B1 RNA with U25A, A27C, C28U, C29A, U30C
DNA 1: CAATCTGAATTCCGGTCTCCC
DNA 2: TGGTGGCTACGACGGGATT
B15: ACUAGGC (DNA:RNA)
RNA: B5 RNA with G25A, U26C, A29G, A30G
DNA 1: CAATCTGAATTCCGGTCTCCC
DNA 2: TGGTGGCTACGACGGGATT
B16: CAGCCAA (DNA:RNA)
RNA: B1 RNA with U25C, G26A, A27G, U30A, U31A
DNA 1: CAATCTGAATTCCGGTCTCCC
DNA 2: TGGTGGCTACGACGGGATT
B17: AAUCAUC (DNA:RNA)
RNA: B5 RNA with G25A, U26A, A28C, A30U
DNA 1: CAATCTGAATTCCGGTCTCCC
DNA 2: TGGTGGCTACGACGGGATT
B18: GGGUCAG (DNA:RNA)
RNA: B5 RNA with U26G, U27G, A28U, A29C, C31G
DNA 1: CAATCTGAATTCCGGTCTCCC
DNA 2: TGGTGGCTACGACGGGATT
B19: CCGGAGC (DNA:RNA)
RNA: B5 RNA with G25C, U26C, U27G, A28G, A30G
DNA 1: CAATCTGAATTCCGGTCTCCC
DNA 2: TGGTGGCTACGACGGGATT
B20: GCUCCUU (DNA:RNA)
RNA: B1 RNA with U25G, G26C, A27U
DNA 1: CAATCTGAATTCCGGTCTCCC
DNA 2: TGGTGGCTACGACGGGATT

Numbering of substitutions follows the chain as printed; changes in the protein carry UniProt numbers. This is one part of the list.

The assay addresses T1, RBFOX1 RRM (Homo sapiens, UniProt Q9NWB1 109-208).
T1 sequence: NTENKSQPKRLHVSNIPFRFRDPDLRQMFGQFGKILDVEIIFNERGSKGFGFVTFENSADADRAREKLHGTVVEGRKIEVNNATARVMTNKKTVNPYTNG
Nature of the assay: EMSA; HiTS-Eq, 1 nM pool, 10 min; buffer printed only for the single-RNA assays: 10 mM Tris pH 7.5, 150 mM NaCl, 3.4 mM EDTA, 0.001% NP-40, 30 C. The conditions noted are these: tags: His6 N-terminal (pET28a); label: 5' 32P. The method in brief: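 Purified wild-type or mutant RbFox RRM at increasing concentrations was equilibrated with 1 nM of 5′-radiolabelled RNA carrying 7 randomized nucleotides for 10 min in 50 µL. Unbound RNA was separated by 8% native PAGE and sequenced. Relative association constants came from read-count changes of each RNA species compared with the control reaction, normalised to the cognate motif.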
For the molecule B1, the binding signal is 0.0113 KA relative to UGCAUGU.
Regarding B2, the binding signal is 0.0022 KA relative to UGCAUGU.
The value for B3 was 0.0176 KA relative to UGCAUGU; that for B4 was 0.0038 KA relative to UGCAUGU; that for B5 was 0.00333 KA relative to UGCAUGU.
The value for B6 was 0.0214 KA relative to UGCAUGU.
For the molecule B7, the binding signal was 0.018 KA relative to UGCAUGU.
As to B8, the binding signal was 0.0138 KA relative to UGCAUGU.
Take B9: the binding signal was 0.00672 KA relative to UGCAUGU.
For B10, the binding signal is 0.0139 KA relative to UGCAUGU.
Regarding B11, the binding signal is 0.000478 KA relative to UGCAUGU.
The value for B12 was 0.00795 KA relative to UGCAUGU.
The value for B13 was 0.00511 KA relative to UGCAUGU.
Take B14: the binding signal was 0.00701 KA relative to UGCAUGU.
For the molecule B15, the binding signal is 0.00637 KA relative to UGCAUGU.
The value for B16 was 0.00165 KA relative to UGCAUGU.
The value for B17 was 0.00129 KA relative to UGCAUGU.
The value for B18 was 0.0155 KA relative to UGCAUGU; that for B19 was 0.0166 KA relative to UGCAUGU; that for B20 was 0.00439 KA relative to UGCAUGU.
